Test results as given in PubChem BioAssay AID720709 (National Center for Advancing Translational Sciences (NCATS), 2013).
In all, about 360,000 compounds went through this assay and about 520 (0.14%) were called active. The shares of active, inactive and inconclusive entries below differ from those in the screen. Calls follow the shape of the dose curve; as a rule, active = well fitted inhibition curve with a large enough effect; inconclusive = small, poorly fitted or top-dose-only effect; inactive = no such curve, though single readings can be large or run the other way. Potencies beside an inconclusive call are fits to weak or partial responses and may not hold up.

Each compound was assayed against Rap guanine nucleotide exchange factor 3 (Homo sapiens) (UniProt O95398) (assay: qHTS for Antagonist of cAMP-regulated guanine nucleotide exchange factor 3 (EPAC1): primary screen). Conditions: EPAC1 GEF assay, Rap1b-BODIPY-GDP exchange fluorescence; activity change, negative = inhibition: at 115 µM (top of the series).
Also: nearly all actives have a fitted effect of over 50% in size.
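For activity change, negative = inhibition in this document: plate controls were vehicle for no effect and positive control for full effect.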
Potency is read from the fitted curve at half-maximal effect; tags tell the direction and shape of the fitted curve.

Sequence of UniProt O95398 (O95398 whole entry, looked up): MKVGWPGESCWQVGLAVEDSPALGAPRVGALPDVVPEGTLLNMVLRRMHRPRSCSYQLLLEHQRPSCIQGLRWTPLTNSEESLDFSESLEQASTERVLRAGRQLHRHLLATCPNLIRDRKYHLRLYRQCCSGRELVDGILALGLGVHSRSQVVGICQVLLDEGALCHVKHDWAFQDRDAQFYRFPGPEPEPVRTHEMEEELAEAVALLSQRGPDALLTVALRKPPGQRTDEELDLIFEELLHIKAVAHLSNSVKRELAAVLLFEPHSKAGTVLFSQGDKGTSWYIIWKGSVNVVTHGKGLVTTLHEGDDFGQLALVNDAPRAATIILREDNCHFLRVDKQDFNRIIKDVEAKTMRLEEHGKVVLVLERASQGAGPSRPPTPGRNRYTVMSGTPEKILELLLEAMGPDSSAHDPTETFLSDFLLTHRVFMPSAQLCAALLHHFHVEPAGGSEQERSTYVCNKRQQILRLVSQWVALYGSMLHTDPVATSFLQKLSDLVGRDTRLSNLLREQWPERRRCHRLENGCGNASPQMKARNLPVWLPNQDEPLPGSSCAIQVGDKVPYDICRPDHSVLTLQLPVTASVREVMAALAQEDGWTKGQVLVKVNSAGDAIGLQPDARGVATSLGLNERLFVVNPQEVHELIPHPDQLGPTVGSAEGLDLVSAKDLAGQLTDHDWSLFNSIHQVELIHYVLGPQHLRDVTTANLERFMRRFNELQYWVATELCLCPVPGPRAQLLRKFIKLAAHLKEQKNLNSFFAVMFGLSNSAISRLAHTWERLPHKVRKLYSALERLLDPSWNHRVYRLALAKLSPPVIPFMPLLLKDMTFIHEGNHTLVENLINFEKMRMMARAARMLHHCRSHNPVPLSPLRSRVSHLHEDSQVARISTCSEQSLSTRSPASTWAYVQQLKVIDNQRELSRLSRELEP

Potency, inactive:
COc1ccc(NC(=O)CN(C)C(=O)c2ccc(NS(=O)(=O)c3ccc4[nH]c(=O)[nH]c4c3)cc2)cc1
COc1ccc(C(=O)N2CCc3ccc(NC(=O)c4ccccn4)cc3C2)cc1F
CC(C)Oc1ccc(C(=O)OC(C)C(=O)NC2CCCCC2C)cc1 (configuration not stated)
O=[N+]([O-])c1ccc(Nc2ccc(F)cc2)nc1
COC(=O)c1c(C)c2c(C)cc3ccccn3c-2c1C(=O)OC
CCOC(=O)CC1C(=O)NCCN1c1nc2ccc(C)cn2c(=O)c1/C=C1\SC(=S)N(CC(C)C)C1=O (configuration not stated)
COc1ccc(OCC(=O)N2CCCC(Nc3ccc(C)c(C)c3)C2)cc1 (configuration not stated)
CCN(CC)c1ccc(NC(=O)c2ccc(=O)[nH]c2)cc1S(=O)(=O)Nc1ccccc1OC
COc1cccc(CN2CCC(C(=O)N3CCN(Cc4ccc5c(c4)OCO5)CC3)CC2)c1
N=c1n(CC(=O)c2ccc([N+](=O)[O-])cc2)c2ccccc2n1Cc1ccc(Cl)cc1
Cc1ccccc1C1c2[nH]c3ccccc3c2CCN1Cc1cccn1-c1ncccn1 (configuration not stated)
O=C(CSc1nnc(-c2ccco2)n1Cc1ccccc1)NC(=O)NCc1ccccc1
COc1cc(Cl)c(CN2CCC(CO)(CCOc3ccccc3)CC2)cc1OC
CCOc1ccc(CCN2C(=O)C(=O)N([C@@H](CC(C)C)CN3CCC[C@H]3CN3C(=O)C(=O)NC[C@@H]3CC(C)C)C[C@@H]2CC(C)C)cc1

Potency, active:
CCOC(=O)c1cc(-c2ccc(/C=C3/C(=O)N(c4ccc(C(=O)O)cc4)N=C3C)o2)ccc1Cl 35.5 µM

Potency, inconclusive:
Cc1ccc(N(C(=O)Cc2cccs2)C2C=CS(=O)(=O)C2)cc1Cl (configuration not stated) 3.16 µM [inhibitor, full curve, poor fit]
COc1ccccc1C1CC(=O)Oc2c(C(C)C)ccc(C)c21 (configuration not stated) 79.4 µM [inhibitor, single point]
CC(CNC(=O)CN1C(=O)COc2ccc(S(=O)(=O)N3CCCCC3)cc21)c1ccccc1 (configuration not stated) 79.4 µM [inhibitor, partial curve]
CC1COCC(C)N1C1=C(Cl)C(=O)c2ccccc2C1=O (configuration not stated) 70.8 µM [inhibitor, partial curve]
O=C1CC(C(=O)N(c2ccccc2)C(C(=O)NC2CCCC2)c2ccncc2)CS1 (configuration not stated) 100 µM [inhibitor, partial curve, poor fit]
COc1ccccc1Cc1c(-c2ccco2)nc2cc(C)c(Br)c(C)n12 79.4 µM [inhibitor, single point]
O=C(COc1ccc(S(=O)(=O)N2CCOCC2)cc1)Nc1ccc(Cl)c(C(F)(F)F)c1 22.4 µM [inhibitor, full curve]
Cc1ccc(NC(=S)N(CCN2CCCCC2)Cc2ccco2)cc1Cl 100 µM [inhibitor, single point]
COc1cc(/C=C2\C(=O)N(c3cccc(C(=O)O)c3)N=C2C)ccc1OCc1ccccc1 89.1 µM [inhibitor, single point]
O=C1C(Cc2ccc(Br)cc2)SC(=Nc2ccccc2)N1c1ccccc1 (configuration not stated) 20 µM [inhibitor, full curve]
COc1cc2nc(N3CCNCC3)nc(N)c2cc1OC 79.4 µM [inhibitor, partial curve]
CC1Sc2ccc(S(=O)(=O)N3CCC(C(=O)NCc4ccccc4)CC3)cc2NC1=O (configuration not stated) 79.4 µM [inhibitor, single point]
O=C(O)c1cccc(Cn2c(Cl)c(/C=N/NC(=O)c3cc4ccccc4cc3O)sc2=O)c1 50.1 µM [inhibitor, partial curve]
CS(=O)(=O)N1CCc2ccccc2C1 89.1 µM [inhibitor, single point]
Cc1cc(C)c2sc(N(CCN(C)C)C(=O)CCS(=O)(=O)c3ccccc3)nc2c1 79.4 µM [inhibitor, single point]
Oc1[nH]c2ccc(Br)cc2c1N=Nc1ccc(F)cc1 89.1 µM [inhibitor, single point]
CCCCOCCCNC(=O)C[C@@H]1C[C@@]2(C(=O)OCC)CCCC=C2N(CCC2=CCCCC2)C1=O 39.8 µM [inhibitor, partial curve]
Cc1ccc(NC(=S)N2CCCN(Cc3ccc(F)cc3)C2)c(C)c1 17.8 µM [inhibitor, full curve, poor fit]
Cc1ccn2cc(-c3cccc(NC(=O)c4cccs4)c3)nc2c1 100 µM [inhibitor, single point]
CC(C)c1ccc(CN(C(=O)C2COc3ccccc3O2)C2CCS(=O)(=O)C2)cc1 (configuration not stated) 89.1 µM [inhibitor, partial curve]
CCc1cc2c(SCc3nc4sc(C(C)=O)c(C)c4c(=O)[nH]3)ncnc2s1 31.6 µM [inhibitor, full curve, poor fit]
O=C(NCC1CCN(c2ccc(S(=O)(=O)N3CCOCC3)cc2)CC1)Nc1ccccc1 39.8 µM [inhibitor, full curve, poor fit]
CN(Cc1nc2ccccc2c(=O)[nH]1)CC(O)COCc1ccco1 (configuration not stated) 39.8 µM [inhibitor, single point]
Cc1cccc(NC(=O)c2nc(S(=O)(=O)Cc3ccccc3)ncc2Cl)c1 112 µM [inhibitor, partial curve, poor fit]
O=C(CSc1nnc2c(n1)[nH]c1ccccc12)N1CCCCC1 35.5 µM [inhibitor, full curve, poor fit]
CC(C)[C@H](NC(=O)C1(c2ccccc2)CCN(C(=O)OC(C)(C)C)CC1)C(=O)O 39.8 µM [inhibitor, partial curve]

Activity change, negative = inhibition, inconclusive:
COc1ccccc1-n1ccnc1SCC(=O)NCc1ccco1 -11.7% [inhibitor]
